Several values for one entry are separate records, joined by “and”; a condition that tells them apart may be missing. Equal entries are not always repeated. Inconclusive means that the source gave no clear call. Such entries were picked first, then a sample of the others. For part of these data: A potency beside an inconclusive call is a rough fit, not a confirmed value. Activity calls are given as the source filed them. Unless noted, calls come from the whole dose curve; as a rule, active = well fitted curve in the direction sought with a large enough effect in the repeat runs; inconclusive = weak or mixed curves; inactive = no such curve, though single readings can be large; an effect the other way counts as inactive or inconclusive.
Key:
[1] = target: Aryl hydrocarbon receptor (Homo sapiens) (UniProt P35869); assay: qHTS assay to identify small molecule that activate the aryl hydrocarbon receptor (AhR) signaling pathway (AID 743085); note: potency is the fitted concentration of half-maximal effect; nearly all actives have a fitted effect of over 15% in size
Summary of the method: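 HepG2 cells stably carrying a 20-DRE firefly luciferase reporter (HG2L7.5c1) treated with compound for 24 hr at 37C. Luciferase read by ONE-Glo luminescence, with CellTiter-Fluor viability read first.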

[2] = target: Peroxisome proliferator-activated receptor gamma (Homo sapiens) (UniProt P37231); assay: qHTS assay to identify small molecule agonists of the peroxisome proliferator-activated receptor gamma (PPARg) signaling pathway (AID 743094; active = well fitted activation curve with a large enough effect in the signal ratio in the repeat runs, not every such curve was filed as active; inconclusive = weak or mixed curves, or effect the other way; inactive = no such curve, though single readings can be large or run the other way; the % refers to the signal ratio; note: potency is the fitted concentration of half-maximal effect; for activation: % is set by controls: 0 for no effect and ±100 for the full control effect); conditions: HEK293H PPARg-UAS-bla, beta-lactamase FRET ratio, 17 h; activation: at 57 µM (top of the series) unless noted
Summary of the method: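 Reporter activation was scored by fluorescence of cleaved LiveBLAzer B/G substrate (1 h, room temperature) in PPARg-bla HEK293H cells previously treated 17 h at 37C with DMSO-dissolved compounds.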

[3] = target: Peroxisome proliferator-activated receptor gamma (Homo sapiens) (UniProt P37231); assay: qHTS assay to identify small molecule antagonists of the peroxisome proliferator-activated receptor gamma (PPARg) signaling pathway (AID 743191; calls by dose curve; note: % is set by controls: 0 for no effect and ±100 for the full control effect; nearly all actives have a fitted effect of over 30% in size); conditions: HEK293H PPARg-UAS-bla, beta-lactamase ratio, antagonist, 17 h; ratio activity, negative = inhibition: at 62.6 µM (top of the series) unless noted
Summary of the method: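 GeneBLAzer PPARg UAS-bla HEK293H cells carrying a UAS-driven beta-lactamase reporter were plated at 3000 cells/well, preincubated 5 h at 37C, then given compound for 17 h at 37C; LiveBLAzer B/G FRET substrate was read after 1 h at room temperature.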

[4] = qHTS assay for small molecule agonists of the antioxidant response element (ARE) signaling pathway (AID 743202; active = well fitted activation curve with a large enough effect in the signal ratio in the repeat runs, not every such curve was filed as active; inconclusive = weak or mixed curves, or effect the other way; inactive = no such curve, though single readings can be large or run the other way; the % refers to the signal ratio; note: potency is the fitted concentration of half-maximal effect); conditions: HepG2 ARE-bla reporter, beta-lactamase FRET, 16 h; activation: at 73.3 µM (top of the series) unless noted
Summary of the method: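 Following a 16 h, 37 C exposure of reporter HepG2 cells (ARE-driven beta-lactamase, 2,000 cells/well) to compounds, FRET substrate was applied for 2 h at room temperature and fluorescence intensity recorded.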

[5] = qHTS assay for small molecule activators of the heat shock response signaling pathway - cell viability counter screen (AID 743209); conditions: HSE-bla HeLa viability, CellTiter-Glo luminescence, 5 h; activity change, negative = cytotoxicity: at 62.6 µM (top of the series); note: potency is the fitted concentration of half-maximal effect; nearly all actives have a fitted effect of over 50% in size
Summary of the method: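 Viability of HSE-bla HeLa cells is measured with CellTiter-Glo in the wells already used for the reporter read. Compound exposure lasts 5 h at 37 C, and luminescence is read after 30 min at room temperature.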

[6] = qHTS assay to identify small molecule agonists of the peroxisome proliferator-activated receptor delta (PPARd) signaling pathway - cell viability counter screen (AID 743211); conditions: PPARd-bla HEK293H viability, CellTiter-Glo luminescence, 17 h; activity change, negative = cytotoxicity: at 62.6 µM (top of the series); note: nearly all actives have a fitted effect of over 55% in size; note: potency is the fitted concentration of half-maximal effect; for activity change, negative = cytotoxicity: % is set by controls: 0 for no effect and ±100 for the full control effect
Summary of the method: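 PPARd-bla HEK293H cells (3000/well) were pre-incubated 5 h at 37 C, then exposed to compound for 17 h at 37 C. After 2 h with LiveBLAzer substrate, CellTiter-Glo was added to the same wells; luminescence read after 30 min at room temperature.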

[7] = target: Peroxisome proliferator-activated receptor delta (Homo sapiens) (UniProt Q03181); assay: qHTS assay to identify small molecule agonists of the peroxisome proliferator-activated receptor delta (PPARd) signaling pathway (AID 743212; calls by dose curve; note: potency is the fitted concentration of half-maximal effect); conditions: HEK293H PPARd-UAS-bla, beta-lactamase FRET ratio, 17 h; activation: at 62.6 µM (top of the series) unless noted
Summary of the method: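 Beta-lactamase reporter read by fluorescence (LiveBLAzer B/G FRET, 2 h, room temperature). Test agents, in DMSO, incubated at 37 C with PPARd-bla HEK293H cells.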

[8] = qHTS assay to identify small molecule antagonists of the peroxisome proliferator-activated receptor delta (PPARd) signaling pathway - cell viability counter screen (AID 743213); conditions: PPARd-bla HEK293H viability, CellTiter-Glo luminescence, 17 h; viability change, negative = cytotoxic: at 62 µM (top of the series) unless noted; note: nearly all actives have a fitted effect of over 50% in size; note: potency is the fitted concentration of half-maximal effect
Summary of the method: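 Viability counter-screen, qHTS format: PPARd-bla HEK293H, L165041 300 nM final, 17 h compound exposure at 37 C, CellTiter-Glo luminescence after 30 min RT.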

[9] = target: Vitamin D3 receptor (Homo sapiens) (UniProt P11473); assay: qHTS assay to identify small molecule antagonists of the vitamin D receptor (VDR) signaling pathway (AID 743223; active = well fitted inhibition curve with a large enough effect in the signal ratio in the repeat runs, not every such curve was filed as active; inconclusive = weak or mixed curves, or effect the other way; inactive = no such curve, though single readings can be large or run the other way; the % refers to the signal ratio; note: % is set by controls: 0 for no effect and ±100 for the full control effect); conditions: VDR-UAS-bla HEK293T, beta-lactamase FRET ratio, 16 h; activity change, negative = inhibition: at 61 µM (top of the series) unless noted
Summary of the method: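 VDR-bla cells were treated with compound plus 3 nM final 1alpha,25-dihydroxyvitamin D3 for 16 h at 37C. Beta-lactamase reporter read by B/G FRET substrate fluorescence after 2 h at room temperature. qHTS format.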

[10] = qHTS assay to identify small molecule antagonists of the peroxisome proliferator-activated receptor gamma (PPARg) signaling pathway - cell viability counter screen (AID 743194); conditions: PPARg-bla HEK293H viability, CellTiter-Glo luminescence, 17 h, co-treated with 50 nM rosiglitazone; activity change, negative = cytotoxicity: at 62.6 µM (top of the series); note: potency is the fitted concentration of half-maximal effect; nearly all actives have a fitted effect of over 55% in size
Summary of the method: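 PPARg-UAS-bla HEK293H cells were plated, rested 5 h at 37 C, then treated with compounds plus rosiglitazone (50 nM final) for 17 h at 37 C; viability was then read by CellTiter-Glo luminescence after 30 min at room temperature.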

[11] = qHTS assay for small molecule agonists of the antioxidant response element (ARE) signaling pathway - cell viability counter screen (AID 743203; calls by dose curve; note: potency is the fitted concentration of half-maximal effect; nearly all actives have a fitted effect of over 55% in size); conditions: ARE-bla HepG2 viability, CellTiter-Glo luminescence, 16 h; viability change, negative = cytotoxic: at 73.3 µM (top of the series)
Summary of the method: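 Viability counter screen: stably transfected ARE-bla HepG2 line, 16 hrs compound exposure at 37C/5% CO2, ATP-based CellTiter-Glo luminescence measured in the reporter wells.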

[12] = qHTS assay for small molecule activators of the heat shock response signaling pathway (AID 743210; active = well fitted activation curve with a large enough effect in the signal ratio in the repeat runs, with a control signal flat, not every such curve was filed as active; inconclusive = weak or mixed curves; the % refers to the signal ratio; note: potency is the fitted concentration of half-maximal effect); conditions: HeLa HSE-bla reporter, beta-lactamase ratio, 5 h; activation: at 62.6 µM (top of the series)
Summary of the method: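 Heat shock element–beta-lactamase HeLa reporter cells; qHTS with compounds for 5 h at 37 C; detection by FRET substrate fluorescence after 2.5 h at RT.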

[13] = target: Peroxisome proliferator-activated receptor delta (Homo sapiens) (UniProt Q03181); assay: qHTS assay to identify small molecule antagonists of the peroxisome proliferator-activated receptor delta (PPARd) signaling pathway (AID 743215; active = well fitted inhibition curve with a large enough effect in the signal ratio in the repeat runs, not every such curve was filed as active; inconclusive = weak or mixed curves, or effect the other way; inactive = no such curve, though single readings can be large or run the other way; the % refers to the signal ratio;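 note: cells stimulated with agonist L165041 at 300 nM final during compound exposure; % is set by controls: 0 for no effect and ±100 for the full control effect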); conditions: HEK293H PPARd-UAS-bla, beta-lactamase FRET ratio, antagonist, 17 h; ratio activity, negative = inhibition: at 62 µM (top of the series) unless noted
Summary of the method: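 Plated HEK293H PPARd-bla cells rested 5 h at 37 C and 5% CO2. Compound, then agonist L165041 at 300 nM final, was added; 17 h at 37 C followed. Substrate loading, 2 h room temperature, fluorescence measured.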

[14] = qHTS assay to identify small molecule agonists of the farnesoid-X-receptor (FXR) signaling pathway - cell viability counter screen (AID 743218); conditions: FXR-bla HEK293T viability, CellTiter-Glo luminescence, 16 h; viability change, negative = cytotoxic: at 62.6 µM (top of the series) unless noted; note: nearly all actives have a fitted effect of over 45% in size; note: potency is the fitted concentration of half-maximal effect
Summary of the method: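 Viability of FXR-bla HEK 293T cells is measured by ATP-based CellTiter-Glo luminescence following 16 h compound treatment at 37 C and a prior 2 h room-temperature beta-lactamase substrate step.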

[15] = target: Vitamin D3 receptor (Homo sapiens) (UniProt P11473); assay: qHTS assay to identify small molecule agonists of the vitamin D receptor (VDR) signaling pathway (AID 743222; calls by dose curve; note: potency is the fitted concentration of half-maximal effect); conditions: HEK293T VDR-UAS-bla, beta-lactamase FRET ratio, 16 h; activation: at 63.5 µM (top of the series) unless noted
Summary of the method: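 Fluorescence from cleaved LiveBLAzer B/G FRET substrate served as readout. VDR-bla cells had been treated 16 h at 37C with test compounds in DMSO, following a 4 h settling period, and substrate was loaded for 2 h at RT.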

[16] = qHTS assay to identify aromatase inhibitors - cell viability counter screen (AID 743084); conditions: MCF-7 aro ERE viability, CellTiter-Fluor, 24 h; activity change, negative = cytotoxicity: at 70.3 µM (top of the series);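 note: cells stimulated with testosterone during compound exposure; potency is the fitted concentration of half-maximal effect; nearly all actives have a fitted effect of over 55% in size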
[17] = qHTS assay to identify small molecule antagonists of the farnesoid-X-receptor (FXR) signaling pathway - cell viability counter screen (AID 743221; active = well fitted cell-killing curve with a large enough effect in the repeat runs, not every such curve was filed as active; inconclusive = weak or mixed curves, or effect the other way; inactive = no such curve, though single readings can be large or run the other way; note: potency is the fitted concentration of half-maximal effect; nearly all actives have a fitted effect of over 50% in size); conditions: FXR-bla HEK293T viability, CellTiter-Glo luminescence, 16 h; activity change, negative = cytotoxicity: at 62.6 µM (top of the series)
Summary of the method: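 GeneBLAzer FXR-UAS-bla HEK 293T cells, compound plus chenodeoxycholic acid (50 uM final), 16 h at 37 C. CellTiter-Glo added to the same wells after the beta-lactamase read; luminescence read after 30 min at room temperature as viability.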

[18] = qHTS assay to identify small molecule that activate the aryl hydrocarbon receptor (AhR) signaling pathway - cell viability counter screen (AID 743086);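 note: HepG2 liver cells carrying the AhR DRE luciferase reporter; % is set by controls: 0 for no effect and ±100 for the full control effect; nearly all actives have a fitted effect of over 45% in size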
Summary of the method: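 HepG2-AhR-luc (HG2L7.5c1) cells, 4000/well, were preincubated 5 h at 37C, exposed to compound in qHTS format for 24 hr at 37C, then given CellTiter-Fluor for 30 min; viability was read as fluorescence in the reporter wells.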
Tags give direction and shape of the fitted curve or compound fluorescence and quenching.

Sequence of UniProt P11473 (P11473 whole entry, looked up): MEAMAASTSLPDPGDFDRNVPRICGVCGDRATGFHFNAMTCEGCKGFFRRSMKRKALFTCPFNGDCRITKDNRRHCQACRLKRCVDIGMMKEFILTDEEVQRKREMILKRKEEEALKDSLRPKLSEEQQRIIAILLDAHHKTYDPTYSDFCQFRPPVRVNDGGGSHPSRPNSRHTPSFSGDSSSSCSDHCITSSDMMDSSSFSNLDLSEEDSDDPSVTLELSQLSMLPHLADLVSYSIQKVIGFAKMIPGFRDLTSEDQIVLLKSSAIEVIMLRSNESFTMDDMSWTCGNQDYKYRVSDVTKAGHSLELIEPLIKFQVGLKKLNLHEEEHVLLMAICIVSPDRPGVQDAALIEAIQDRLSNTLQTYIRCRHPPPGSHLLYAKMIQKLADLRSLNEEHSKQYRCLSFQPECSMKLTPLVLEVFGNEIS
Sequence of UniProt P35869 (P35869 whole entry, looked up): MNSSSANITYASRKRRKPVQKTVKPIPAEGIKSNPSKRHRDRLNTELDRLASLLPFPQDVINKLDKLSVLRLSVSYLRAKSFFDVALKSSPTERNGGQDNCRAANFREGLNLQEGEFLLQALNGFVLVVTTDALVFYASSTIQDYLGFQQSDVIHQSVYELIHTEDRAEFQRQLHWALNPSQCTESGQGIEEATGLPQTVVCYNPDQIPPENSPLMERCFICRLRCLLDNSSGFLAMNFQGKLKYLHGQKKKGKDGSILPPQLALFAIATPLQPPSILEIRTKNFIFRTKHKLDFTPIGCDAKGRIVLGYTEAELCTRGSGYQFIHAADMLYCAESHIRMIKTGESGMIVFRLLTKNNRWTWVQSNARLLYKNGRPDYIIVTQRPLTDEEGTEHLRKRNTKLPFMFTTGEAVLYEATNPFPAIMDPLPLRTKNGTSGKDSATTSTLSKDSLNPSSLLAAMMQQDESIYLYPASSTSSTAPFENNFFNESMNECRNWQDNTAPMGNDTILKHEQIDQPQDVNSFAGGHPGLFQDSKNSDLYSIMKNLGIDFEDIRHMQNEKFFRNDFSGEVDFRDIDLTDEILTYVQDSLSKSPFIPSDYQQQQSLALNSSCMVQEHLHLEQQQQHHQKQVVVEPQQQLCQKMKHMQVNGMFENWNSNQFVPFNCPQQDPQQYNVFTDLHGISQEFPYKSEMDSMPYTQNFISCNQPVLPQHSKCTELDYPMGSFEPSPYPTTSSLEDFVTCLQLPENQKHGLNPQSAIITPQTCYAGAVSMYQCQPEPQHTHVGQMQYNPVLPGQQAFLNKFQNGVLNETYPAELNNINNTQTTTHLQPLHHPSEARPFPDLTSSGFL
Sequence of UniProt P37231 (P37231 whole entry, looked up): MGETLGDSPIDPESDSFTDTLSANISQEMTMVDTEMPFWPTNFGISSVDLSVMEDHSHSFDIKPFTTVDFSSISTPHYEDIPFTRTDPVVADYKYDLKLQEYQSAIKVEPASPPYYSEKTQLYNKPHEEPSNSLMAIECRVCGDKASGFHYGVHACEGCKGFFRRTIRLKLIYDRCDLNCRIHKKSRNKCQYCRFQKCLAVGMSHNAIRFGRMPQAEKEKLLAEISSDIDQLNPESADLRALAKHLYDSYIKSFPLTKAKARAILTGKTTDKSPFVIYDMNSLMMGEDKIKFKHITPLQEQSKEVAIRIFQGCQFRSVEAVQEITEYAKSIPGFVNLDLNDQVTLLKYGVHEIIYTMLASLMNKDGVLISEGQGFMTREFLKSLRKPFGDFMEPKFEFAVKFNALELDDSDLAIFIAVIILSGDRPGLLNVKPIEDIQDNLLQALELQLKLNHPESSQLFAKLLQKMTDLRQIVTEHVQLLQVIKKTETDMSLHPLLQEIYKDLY
Sequence of UniProt Q03181 (Q03181 whole entry, looked up): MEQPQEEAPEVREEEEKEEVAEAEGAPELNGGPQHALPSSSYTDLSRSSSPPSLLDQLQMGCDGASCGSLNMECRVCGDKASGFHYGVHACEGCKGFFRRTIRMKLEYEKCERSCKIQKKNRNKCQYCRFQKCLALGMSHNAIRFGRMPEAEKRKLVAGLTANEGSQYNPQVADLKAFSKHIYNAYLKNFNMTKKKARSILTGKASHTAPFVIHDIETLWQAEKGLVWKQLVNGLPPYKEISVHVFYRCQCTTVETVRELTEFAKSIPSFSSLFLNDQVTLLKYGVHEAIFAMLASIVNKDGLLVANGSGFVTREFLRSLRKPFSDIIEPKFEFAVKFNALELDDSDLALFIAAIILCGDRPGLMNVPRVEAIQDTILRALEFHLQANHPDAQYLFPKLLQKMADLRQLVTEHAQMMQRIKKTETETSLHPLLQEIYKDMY

Nc1nc(Cl)cc(Cl)n1
inactive: Potency [2] | Potency [6] | Potency [8]
active: Potency [5] 55 µM
inconclusive: Potency [1] 68.6 µM [activator, partial curve, poor fit] | ratio activity, negative = inhibition [3] 0.72% | Potency [4] 24.3 µM [rising, partial curve] | Potency [7] 55 µM [rising, partial curve, poor fit] | activity change, negative = inhibition [9] 13.7%

CCc1oc2ccccc2c1C(=O)c1cc(I)c(O)c(I)c1
active: Potency [2] 0.952 µM | Potency [10] 13.3 µM | Potency [11] 26.6 µM
inconclusive: Potency [1] 33.5 µM [activator, single point] | Potency [4] 33.5 µM [single point] | Potency [12] 11.9 µM | Potency [6] 26.6 µM [cytotoxic, partial curve] | Potency [7] 7.5 µM [rising, partial curve] | Potency [8] 10.6 µM [cytotoxic, partial curve, poor fit] | ratio activity, negative = inhibition [13] -56.9% | Potency [14] 5.96 µM [cytotoxic, single point] | activation [15] -23% | activity change, negative = inhibition [9] 14.3%
inactive: Potency [3]

O=C(OCc1ccccc1)c1ccccc1O
inconclusive: Potency [16] 68.1 µM [cytotoxic, partial curve, poor fit] | Potency [7] 54.6 µM [rising, single point] | Potency [8] 61.2 µM [cytotoxic, single point] and 5.49 µM [cytotoxic, single point] | ratio activity, negative = inhibition [13] -36.1% and -0.224% | Potency [14] 61.2 µM [cytotoxic, single point] | viability change, negative = cytotoxic [14] 41.5% | Potency [17] 54.6 µM [falling, single point] | Potency [15] 54.6 µM [activator] | activity change, negative = inhibition [9] 20.9%

Cc1cccc(C(C)(C)C)c1O
inconclusive: Potency [1] 68.6 µM [activator, partial curve, poor fit]
inactive: Potency [18] | Potency [3] | Potency [12]
